# Experimental data reported in article PMC5892938.
# The list shows a part of the results. At the low end of the ranking the order means little.
# Target: GST-SBP-SLBP (stem-loop binding protein) (UniProt Q14493)
# Experiment: targeted RNA Bind-n-Seq;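 further: DESeq read counts versus GST-SBP nonspecific binding control pulldown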
# Conditions: RBNS binding buffer: 25 mM Tris pH 7.5, 150 mM KCl, 3 mM MgCl2, 0.1% Tween, 0.5 mg/mL BSA, 1 mM DTT; 27 nM protein, 750 pM RNA pool; temperature not stated; high values mean tight binding
row,Sequence,binding signal (log2 fold change)
1,GGUCACGUCUCAAUCAACUCUAUCGAGGGGGGGAAAACCCCUUUGCCCUCAUCUUCAACAGCUCGCAGUCAAG,-0.262
2,GGUCACGUCUCAAUCAACUCAACUUCCAGGGAAAUCCCUGGCAAUUUCAACAGCUCGCAGUCAAG,-0.11
3,GGUCACGUCUCAAUCAACUCAUCCCCAGGAGUUUACUCCUGUAGUCUCAACAGCUCGCAGUCAAG,0.138
4,GGUCACGUCUCAAUCAACUCCUACGAGGGGGGGAAAACCCCUUUACCCUCAAUCUCAACAGCUCGCAGUCAAG,-0.529
5,GGUCACGUCUCAAUCAACUCUAUUUCCAGGGAAAGCCCUGGCUAACUCAACAGCUCGCAGUCAAG,0.196
6,GGUCACGUCUCAAUCAACUCUUCCCCCAGGGAAAACCCUGGUUAUGUCAACAGCUCGCAGUCAAG,-0.0619
7,GGUCACGUCUCAAUCAACUCUACUUCAGGAGUUUUCUCCUGUUAACUCAACAGCUCGCAGUCAAG,0.0995
8,GGUCACGUCUCAAUCAACUCUAAAGAGGGGGGGAAAACCCCUUUACCCUCAUCUUCAACAGCUCGCAGUCAAG,-0.0523
9,GGUCACGUCUCAAUCAACUCAUUCUCAGGAGUUUACUCCUGCUUACUCAACAGCUCGCAGUCAAG,0.00153
10,GGUCACGUCUCAAUCAACUCUUUUCCAGGAGUUUUCUCCUGCUAACUCAACAGCUCGCAGUCAAG,0.063
11,GGUCACGUCUCAAUCAACUCAACUUCCAGGGAAAGCCCUGGUAUUCUCAACAGCUCGCAGUCAAG,0.107
12,GGUCACGUCUCAAUCAACUCAACUUCCAGGGAAACCCCUGGCAUUUUCAACAGCUCGCAGUCAAG,0.0233
13,GGUCACGUCUCAAUCAACUCCCUAGAGGGGGGGAAAACCCCUUUGCCCUCCGUAUCAACAGCUCGCAGUCAAG,0.168
14,GGUCACGUCUCAAUCAACUCCAUGGAGGGGGGGAAAACCCCUUUACCCUCAACCUCAACAGCUCGCAGUCAAG,0.122
15,GGUCACGUCUCAAUCAACUCUUUUCCCAGGGAAAGCCCUGGCAUUCUCAACAGCUCGCAGUCAAG,0.204
16,GGUCACGUCUCAAUCAACUCAUUAGAGGGGGGGAAAACCCCUUUACCCUCGUUUUCAACAGCUCGCAGUCAAG,0.199
17,GGUCACGUCUCAAUCAACUCAUUUCCAGGAGUUUACUCCUGCUUAGUCAACAGCUCGCAGUCAAG,0.158
18,GGUCACGUCUCAAUCAACUCGCAAGAGGGGGGGAAAACCCCUUUACCCUCAAAUUCAACAGCUCGCAGUCAAG,0.308
19,GGUCACGUCUCAAUCAACUCAUUCCCCAGGGAAAACCCUGGCUUAUUCAACAGCUCGCAGUCAAG,0.07
20,GGUCACGUCUCAAUCAACUCUUCCCCCAGGGAAAACCCUGGCAUACUCAACAGCUCGCAGUCAAG,-0.0584
21,GGUCACGUCUCAAUCAACUCAUCCCCAGGAGUUUCCUCCUGCUAACUCAACAGCUCGCAGUCAAG,0.194
22,GGUCACGUCUCAAUCAACUCAUCUCCAGGAGUUUCCUCCUGUAAUUUCAACAGCUCGCAGUCAAG,0.018
23,GGUCACGUCUCAAUCAACUCUUUUUCCAGGGAAACCCCUGGCUAUGUCAACAGCUCGCAGUCAAG,-0.0917
24,GGUCACGUCUCAAUCAACUCCUCAGAGGGGGGGAAAACCCCUUUACCCUCGUCUUCAACAGCUCGCAGUCAAG,0.0137
25,GGUCACGUCUCAAUCAACUCAAUAGAGGGGGGGAAAACCCCUUUACCCUCCAAAUCAACAGCUCGCAGUCAAG,0.0242

row,Sequence,binding signal (log2 fold change)
1,GGUCACGUCUCAAUCAACUCUAACGAGGGGGGGAAAACCCCUUUACCCUCAAUAUCAACAGCUCGCAGUCAAG,-0.373
2,GGUCACGUCUCAAUCAACUCAAUCCCAGGAGUUUACUCCUGUUAUCUCAACAGCUCGCAGUCAAG,0.165
3,GGUCACGUCUCAAUCAACUCUUUCUCCAGGGAAAACCCUGGUAUUUUCAACAGCUCGCAGUCAAG,-0.0107
4,GGUCACGUCUCAAUCAACUCAUCCCCCAGGGAAAGCCCUGGUUUACUCAACAGCUCGCAGUCAAG,-0.0211
5,GGUCACGUCUCAAUCAACUCUACUCCCAGGGAAACCCCUGGCUAUCUCAACAGCUCGCAGUCAAG,-0.0429
6,GGUCACGUCUCAAUCAACUCAUUCCCCAGGGAAAGCCCUGGCUAACUCAACAGCUCGCAGUCAAG,-0.0276
7,GGUCACGUCUCAAUCAACUCUUUUUCCAGGGAAAUCCCUGGUAUUCUCAACAGCUCGCAGUCAAG,0.125
8,GGUCACGUCUCAAUCAACUCUAUUUCAGGAGUUUACUCCUGCUUACUCAACAGCUCGCAGUCAAG,0.108
9,GGUCACGUCUCAAUCAACUCAUUUCCAGGAGUUUACUCCUGCUAUUUCAACAGCUCGCAGUCAAG,-0.214
10,GGUCACGUCUCAAUCAACUCACUAGAGGGGGGGAAAACCCCUUUGCCCUCAUAAUCAACAGCUCGCAGUCAAG,0.0406
11,GGUCACGUCUCAAUCAACUCAACUUCAGGAGUUUACUCCUGUUAUCUCAACAGCUCGCAGUCAAG,-0.219
12,GGUCACGUCUCAAUCAACUCAUCGUCAGGAGUUUCCUCCUGCUAUUUCAACAGCUCGCAGUCAAG,0.0682
13,GGUCACGUCUCAAUCAACUCAUCCUCAGGAGUUUUCUCCUGCUAAUUCAACAGCUCGCAGUCAAG,0.0964
14,GGUCACGUCUCAAUCAACUCUUUUCCCAGGGAAACCCCUGGCUAACUCAACAGCUCGCAGUCAAG,-0.01
15,GGUCACGUCUCAAUCAACUCUAUUUCCAGGGAAAUCCCUGGUAUUCUCAACAGCUCGCAGUCAAG,-0.112
16,GGUCACGUCUCAAUCAACUCUAUAGAGGGGGGGAAAACCCCUUUGCCCUCAUUAUCAACAGCUCGCAGUCAAG,-0.251
17,GGUCACGUCUCAAUCAACUCACAAGAGGGGGGGAAAACCCCUUUACCCUCACAAUCAACAGCUCGCAGUCAAG,-0.0607
18,GGUCACGUCUCAAUCAACUCAAGUCCCAGGGAAAUCCCUGGCAAAUUCAACAGCUCGCAGUCAAG,0.162
19,GGUCACGUCUCAAUCAACUCAUCCUCAGGAGUUUUCUCCUGUAAAUUCAACAGCUCGCAGUCAAG,0.161
20,GGUCACGUCUCAAUCAACUCACACGAGGGGGGGAAAACCCCUUUGCCCUCAUUUUCAACAGCUCGCAGUCAAG,-0.286
21,GGUCACGUCUCAAUCAACUCUAUCGCAGGAGUUUUCUCCUGGUUAUUCAACAGCUCGCAGUCAAG,-0.244
22,GGUCACGUCUCAAUCAACUCAAUAGAGGGGGGGAAAACCCCUUUACCCUCCUAAUCAACAGCUCGCAGUCAAG,-0.165
23,GGUCACGUCUCAAUCAACUCUUCGUCAGGAGUUUUCUCCUGCAAAUUCAACAGCUCGCAGUCAAG,0.0309
24,GGUCACGUCUCAAUCAACUCAACUCCAGGAGUUUUCUCCUGUAUAUUCAACAGCUCGCAGUCAAG,0.145
25,GGUCACGUCUCAAUCAACUCUUUCGCCAGGGAAAUCCCUGGGUAUCUCAACAGCUCGCAGUCAAG,-0.176

row,Sequence,binding signal (log2 fold change)
1,GGUCACGUCUCAAUCAACUCUAUCCCAGGAGUUUACUCCUGUAUACUCAACAGCUCGCAGUCAAG,0.0393
2,GGUCACGUCUCAAUCAACUCUACUCCCAGGGAAAACCCUGGCUUUUUCAACAGCUCGCAGUCAAG,-0.361
3,GGUCACGUCUCAAUCAACUCAAUUUCCAGGGAAAGCCCUGGCUAUCUCAACAGCUCGCAGUCAAG,-0.0258
4,GGUCACGUCUCAAUCAACUCAUUCUCAGGAGUUUGCUCCUGUUUUUUCAACAGCUCGCAGUCAAG,-0.086
5,GGUCACGUCUCAAUCAACUCUUUUCCCAGGGAAAACCCUGGCUUAUUCAACAGCUCGCAGUCAAG,0.0191
6,GGUCACGUCUCAAUCAACUCAUCUCCAGGAGUUUUCUCCUGCAAUCUCAACAGCUCGCAGUCAAG,-0.05
7,GGUCACGUCUCAAUCAACUCUUAGGAGGGGGGGAAAACCCCUUUACCCUCACAUUCAACAGCUCGCAGUCAAG,0.129
8,GGUCACGUCUCAAUCAACUCAACUCCAGGAGUUUUCUCCUGUUAUGUCAACAGCUCGCAGUCAAG,-0.0565
9,GGUCACGUCUCAAUCAACUCCUAAGAGGGGGGGAAAACCCCUUUACCCUCCAGAUCAACAGCUCGCAGUCAAG,-0.337
10,GGUCACGUCUCAAUCAACUCUACUCCAGGAGUUUCCUCCUGUUAAUUCAACAGCUCGCAGUCAAG,-0.0691
11,GGUCACGUCUCAAUCAACUCUAUUCCAGGAGUUUUCUCCUGUUAACUCAACAGCUCGCAGUCAAG,-0.0435
12,GGUCACGUCUCAAUCAACUCUACUUCCAGGGAAAUCCCUGGUUAAUUCAACAGCUCGCAGUCAAG,-0.0672
13,GGUCACGUCUCAAUCAACUCUUCUUCAGGAGUUUACUCCUGUUAUCUCAACAGCUCGCAGUCAAG,-0.0413
14,GGUCACGUCUCAAUCAACUCAACUCCCAGGGAAAGCCCUGGUUAUUUCAACAGCUCGCAGUCAAG,-0.245
15,GGUCACGUCUCAAUCAACUCAUACGAGGGGGGGAAAACCCCUUUACCCUCAUACUCAACAGCUCGCAGUCAAG,-0.147
16,GGUCACGUCUCAAUCAACUCUUAAGAGGGGGGGAAAACCCCUUUACCCUCACUAUCAACAGCUCGCAGUCAAG,-0.228
17,GGUCACGUCUCAAUCAACUCAAUAGAGGGGGGGAAAACCCCUUUGCCCUCAUUUUCAACAGCUCGCAGUCAAG,0.0718
18,GGUCACGUCUCAAUCAACUCUCAAGAGGGGGGGAAAACCCCUUUGCCCUCCAUGUCAACAGCUCGCAGUCAAG,0.411
19,GGUCACGUCUCAAUCAACUCAAUCCCAGGAGUUUCCUCCUGCAUUCUCAACAGCUCGCAGUCAAG,0.22
20,GGUCACGUCUCAAUCAACUCUUCCGAGGGGGGGAAAACCCCUUUACCCUCAAUUUCAACAGCUCGCAGUCAAG,-0.179
21,GGUCACGUCUCAAUCAACUCUUCGUCCAGGGAAACCCCUGGUAUUCUCAACAGCUCGCAGUCAAG,-0.0723
22,GGUCACGUCUCAAUCAACUCAUUCUCAGGAGUUUCCUCCUGCUUUCUCAACAGCUCGCAGUCAAG,0.054
23,GGUCACGUCUCAAUCAACUCUUCUUCCAGGGAAAACCCUGGCAUGUUCAACAGCUCGCAGUCAAG,-0.0286
